Source: US6541490B1, “Bipyridine manganese complexes” (Eukarion, Inc., priority 1998, dated 2003)
For at least one compound, name, drawing or mass did not settle the structure.

Tests used:
Assay type in all cases: biochemical
[1] = Superoxide dismutase (SOD) assay: xanthene oxidase/hypoxanthene, XTT reduction; details: SOD activity from IC50 of XTT reduction (one International Unit), normalised; 0.05M Tris/HCl pH 7.4, 25° C.
Description: This method is adapted from what has become the standard method for the measurement of SOD activity (McCord J. M., Fridovich, I., J. Biol. Chem. 244, 6049-6055, 1969). Briefly, a steady-state production of superoxide anion was maintained by the action of xanthene oxidase (XO) on hypoxanthene (HX) at physiological pH. Presence of the anion was measured by the reduction of XTT (3′-{1-(phenylamino)-carbonyl]-3,4-tetrazolium]-bis(4-methoxy-6-nitro)benzsulphonic acid to a water-soluble product with an absorbance maximum at ˜470 nm. Hypoxanthene concentrations were titrated so as to give a steady-state rate of XTT reduction of 0.025 Optical Density Units (OD) per minute at 25° C.
(§1) The assays for compound antioxidant activity were carried out in 96-well microtitre plates using a DIAS modular assay robot instrument (Dynatech Ltd.) Compounds were solublised in DMF at 10 mM. DMF concentrations in the assay never exceeded 1%, were tolerated and were controlled for in assay plates.
Xanthene oxidase (Sigma X1875) 0.01 U/ml and XTT (Sigma X4251), 0.5 mM and hypoxanthene (Sigma H9377), typically at […], were incubated in the presence of various doses of compounds at 25° C. in 0.05M Tris/HCI pH 7.4. Rates of XTT reduction were measured over 5 minutes at 490 nm. Dose-response curves were constructed for inhibition by the compound of control rates of XTT reduction. IC50 concentrations were derived using a four-parameter logistic model using the software tools Excel (Microsoft Corp.) and Xlfit (ID Business Solutions). This concentration is equivalent to one International Unit of SOD activity. These values were normalised to units of U/mmol compound.

[2] = Catalase (CAT) assay: removal of hydrogen peroxide, HRP/ABTS read-out; details: amount of hydrogen peroxide removed per minute, per mmol of compound; 0.05M Tris HCl pH 7.4, 25° C., 60 mins
Source text: This method measures catalase activity as the ability to remove hydrogen peroxide from solution in the absence of hydrogen donors over one hour. After this time any remaining peroxide was removed by introduction to the mixture of high concentrations of horseradish peroxidase and the hydrogen donor 2,2′-azino-di-[3-ethyl-benzothiazoline-(6)-sulphonic acid (ABTS). This rapid reaction produces peroxide-concentration-dependant product with a maximal absorbance at 405 nm.
as §1
Hydrogen peroxide (Sigma H1009) 100 mM was incubated with various concentrations of compound in 0.05M Tris HCI pH 7.4 at 25° C. for 60 mins. In addition, a standard range of concentrations of hydrogen peroxide were placed on every microtitre plate. After incubation 0.1 volumes of a mixture of horseradish peroxidase (Sigma P-6140) 1 U/ml and ABTS (Sigma A-1888) 3 mM was added. The resultant reaction was allowed to go to completion by incubation at 25° C. for 60 mins. Plates were then read for absorbance at 405 nm. A standard curve for absorbance against known hydrogen peroxide concentration was constructed. Absorbance data for wells containing compound were interpolated against this curve using the software tools Excel (Microsoft Corp.) and Xlfit (ID Business Solutions). This analysis gives the amount of hydrogen peroxide removed per minute, per mmol of compound.
The catalase assay procedure described above provides certain advantages over previously described assays. Prior art assays of catalase activity involve direct measurement either of the amount of oxygen produced (generally using an oxygen electrode) or of the amount of hydrogen peroxide remaining (by UV absorption which generally involves use of a quartz vessel). The assay described above instead employs an indirect measurement of hydrogen peroxide concentration. The addition of peroxidase and ABTS after an appropriate time period results in immediate oxidation by POD of the ABTS using the remaining hydrogen peroxide. The oxidation of ABTS results in a colour change which can be measured. This allows the assay to be performed in a format which is simpler and which also provides for increased compound throughput relative to previous techniques. For example, the assay can be run in a multi-well plate format (such as a 96-well plate format).

[3] = Peroxidase (POD) assay: hydrogen peroxide removal with hydrogen donor ABTS; details: ABTS 3 mM, 0.05M Tris HCl pH 7.4, 25° C., 2 minutes, interpolated against horseradish peroxidase standard curve
Description: This method measures the ability of the compounds to remove hydrogen peroxide in the presence of the hydrogen donor 2,2′-azino-di-[3-ethyl-benzothiazoline-(6)-sulphonic acid (ABTS) (Galati, H., J. Clin. Chem. Clin. Biochem. (1979) 17, 1-7).
as §1
ABTS (Sigma A-1888) 3 mM was incubated with various concentrations of compound in 0.05M Tris HCI pH 7.4 at 25° C. A range of standard concentrations of horseradish peroxidase (Sigma P-6140) were included on each microtitre plate. Hydrogen peroxide (Sigma H1009) 100 mM was added and the plate incubated at 25° C. for 2 minutes. Absorbance at 405 nm was measured and the rates of ABTS […] calculated. A standard curve was constructed using data from wells containing known concentrations of peroxidase. Data for wells containing compound were interpolated against this curve using the software tools Excel (Microsoft Corp.) and Xlfit (ID Business Solutions). Estimations of peroxidase activity were given as International Units of peroxidase activity/mmol compound.

Row | SMILES | SOD [1] [U/mmol compound] | CAT [2] | POD [3]
1 | CC(=O)[O][Mn]1[O]c2ccccc2-c2cccc(n2)-c2cccc(n2)-c2ccccc2[O]1 [Example 1, 6,6′-bis(2-Hydroxyphenyl)-2,2′-bipyridine-manganese(III)acetate] | 215.35 | 0.126 | 8209.22 International Units of peroxidase activity/mmol compound
2 | COc1ccc2c(c1)-c1cccc(n1)-c1cccc(n1)-c1ccc(C)c(C)c1[O][Mn]([O]C(C)=O)[O]2 [Example 35, 6-(3,4-Dimethyl-2-hydroxyphenyl)-6′-(2-hydroxy-5-methoxyphenyl)-2,2′-bipyridine-manganese(III)acetate] | 258.5 | 0.672 | 
3 | COc1cc(C)cc2c1[O][Mn]([O]C(C)=O)[O]c1c(OC)cc(C)cc1-c1cccc(n1)-c1cccc-2n1 [Example 5, 6,6′-bis(2-Hydroxy-3-methoxy-5-methylphenyl)-2,2′-bipyridine-manganese(III)acetate] | 211.15 | 0.235 | 4336.81 International Units of peroxidase activity/mmol compound
4 | COc1ccc2c(c1)-c1cccc(n1)-c1cccc(n1)-c1cccc(OC)c1[O][Mn]([O]C(C)=O)[O]2 [Example 27, 6-(2-Hydroxy-3-methoxyphenyl)-6′-(2-hydroxy-5-methoxyphenyl)-2,2′-bipyridine-manganese(III)acetate] | 124 | 0.3135 | 
5 | CC(=O)[O][Mn]1[O]c2c(C)cccc2-c2cccc(n2)-c2cccc(n2)-c2cccc(C)c2[O]1 [Example 8, 6,6′-bis(2-Hydroxy-3-methylphenyl)-2,2′-bipyridine-manganese(III)acetate] | 101 | 0.072 | 4560.19 International Units of peroxidase activity/mmol compound
6 | CC(=O)[O][Mn]1[O]c2ccc(C(C)(C)C)cc2-c2cccc(n2)-c2cccc(n2)-c2cc(C(C)(C)C)ccc2[O]1 [Example 14, 6,6′-bis(2-Hydroxy-5-t-butylphenyl)-2,2′-bipyridine-manganese(III)acetate] | 140 | 0.1475 | 12709.5 International Units of peroxidase activity/mmol compound
7 | COc1ccc2c(c1)-c1cccc(n1)-c1cccc(n1)-c1ccc(C)cc1[O][Mn]([O]C(C)=O)[O]2 [Example 21, 6-(2-Hydroxy-5-methoxyphenyl)-6′-(2-hydroxy-4-methylphenyl)-2,2′-bipyridine-manganese(III)acetate] | 129.5 | 0.4025 | 422177 International Units of peroxidase activity/mmol compound
8 | CC(=O)[O][Mn]1[O]c2cc(C)ccc2-c2cccc(n2)-c2cccc(n2)-c2cccc(C)c2[O]1 [Example 22, 6-(2-Hydroxy-3-methylphenyl)-6′-(2-hydroxy-4-methylphenyl)-2,2′-bipyridine-manganese(III)acetate] | 177 | 0.09 | 4524587 International Units of peroxidase activity/mmol compound
9 | CC(=O)[O][Mn]1[O]c2c(C)cc(C)cc2-c2cccc(n2)-c2cccc(n2)-c2cc(C)cc(C)c2[O]1 [Example 9, 6,6′-bis(2-Hydroxy-3,5-dimethylphenyl)-2,2′-bipyridine-manganese(III)acetate] | 249.45 | 0.072 | 1772.035 International Units of peroxidase activity/mmol compound
10 | C=CCc1cc(OC)c2c(c1)-c1cccc(n1)-c1cccc(n1)-c1cc(CC=C)cc(OC)c1[O][Mn]([O]C(C)=O)[O]2 [Example 15, 6,6′-bis(5-Allyl-2-hydroxy-3-methoxyphenyl)-2,2′-bipyridine-manganese(III)acetate] | 145.4 | 0.206 | 
11 | CC(=O)[O][Mn]1[O]c2c(O)cccc2-c2cccc(n2)-c2cccc(n2)-c2cccc(O)c2[O]1 [Example 12, 6,6′-bis(2,3-dihydroxyphenyl)-2,2′-bipyridine-manganese(III)acetate] | 234.75 | 0.053 | 324.855 International Units of peroxidase activity/mmol compound
12 | CCCCCCc1cccc2c1[O][Mn]([O]C(C)=O)[O]c1ccc(OC)cc1-c1cccc(n1)-c1cccc-2n1 [Example 33, 6-(3-Hexyl-2-hydroxyphenyl)-6′-(2-hydroxy-5-methoxyphenyl)-2,2′-bipyridine-manganese(III)acetate] | 133.5 | 0.1035 | 
13 | CC(=O)[O][Mn]1[O]c2cc(C)ccc2-c2cccc(n2)-c2cccc(n2)-c2cc(C)ccc2[O]1 [Example 25, 6-(2-Hydroxy-4-methylphenyl)-6′-(2-hydroxy-5-methylphenyl)-2,2′-bipyridine-manganese(III)acetate] | 116 | 0.1805 | 
14 | COc1ccc2c(c1)-c1cccc(n1)-c1cccc(n1)-c1ccccc1[O][Mn]([O]C(C)=O)[O]2 [Example 32, 6-(2-Hydroxyphenyl)-6′-(2-hydroxy-5-methoxyphenyl)-2,2′-bipyridine-manganese(III)acetate] | 159 | 0.488 | 
15 | COc1cccc2c1[O][Mn]([O]C(C)=O)[O]c1cc(C)ccc1-c1cccc(n1)-c1cccc-2n1 [Example 20, 6-(2-Hydroxy-3-methoxyphenyl)-6′-(2-hydroxy-4-methylphenyl)-2,2′-bipyridine-manganese(III)acetate] | 183.5 | 0.303 | 
16 | COc1cccc2c1[O][Mn]([O]C(C)=O)[O]c1c(C)cccc1-c1cccc(n1)-c1cccc-2n1 [Example 28, 6-(2-Hydroxy-3-methoxyphenyl)-6′-(2-hydroxy-3-methylphenyl)-2,2′-bipyridine-manganese(III)acetate] | 182.5 | 0.176 | 
17 | CCCCCCc1cccc2c1[O][Mn]([O]C(C)=O)[O]c1c(OC)cccc1-c1cccc(n1)-c1cccc-2n1 [Example 29, 6-(2-Hydroxy-3-hexylphenyl)-6′-(2-hydroxy-3-methoxyphenyl)-2,2′-bipyridine manganese(III)acetate] | 140.5 | 0.0615 | 
18 | COc1ccc2c(c1)-c1cccc(n1)-c1cccc(n1)-c1cc(C)cc(OC)c1[O][Mn]([O]C(C)=O)[O]2 [Example 37, 6-(2-Hydroxy-5-methoxyphenyl)-6′-(2-hydroxy-3-methoxy-5-methylphenyl)-2,2′-bipyridine-manganese(III)acetate] | 173 | 0.398 | 
19 | CC(=O)[O][Mn]1[O]c2ccccc2-c2cccc(n2)-c2cccc(n2)-c2ccc(C)cc2[O]1 [Example 19, 6-(2-Hydroxyphenyl)-6′-(2-hydroxy-4-methylphenyl)-2,2′-bipyridine-manganese(III)acetate] | 86 | 0.0885 | 
